# Data reported in PubChem BioAssay AID1508624 (National Center for Advancing Translational Sciences (NCATS), 2021).
# The campaign covered roughly 48,000 compounds. About 120 (0.25%) were called active. Not shown: some 4% with an inconclusive outcome. Calls follow the shape of the dose curve; as a rule, active = well fitted activation curve with a large enough effect; inconclusive = small, poorly fitted or top-dose-only effect, or another doubt; inactive = no such curve, though single readings can be large or run the other way. Some of the results follow.
# Test: Primary qHTS for Identification of Small Molecule Activators of Huntingtin-Antisense Promoter Activity; also: nearly all actives have a fitted effect of over 55% in size
# Conditions: HEK293 HTT-AS promoter firefly luciferase reporter, 24 h; series mostly up to 57.5 µM; activity change, positive = activation: at the top concentration
# How it was run: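 HEK293 luciferase promoter-reporter cells (2,500/well) plated 24 h, then compounds added at up to 57.5 uM final for 24 h at 37 °C. Firefly luminescence by Dual-Glo, normalized to vehicle (0%) and zero RLU (-100%).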
row,SMILES,"activity change, positive = activation"
1,Cc1ccc(Cn2c(C(=O)O)c(CNCCc3cccs3)c3ccc(C)cc32)cc1,inactive: -15.3%
2,O=C(NC1CC(=O)N(c2ccc(F)cc2)C1)c1ccc(S(=O)(=O)N2CCCC2)cc1 (stereo not drawn),inactive: -23.1%
3,CCN(C(=O)CSc1nc2ccccc2nc1Cc1cccc(OC)c1)c1cccc(C)c1,inactive: -34.4%
4,Cc1ccc(NC(=O)Nc2nc3c(s2)CCCCCC3)cc1C,inactive: 23.3%
5,Cc1cc(Br)ccc1NC(=O)COc1cc(=O)n(C)c2ccccc12,inactive: -22%
6,COc1ccccc1NC(=O)c1ccc2[nH]c(C)cc(=O)c2c1,inactive: 0.0203%
7,c1ccc2sc(SN3CCOCC3)nc2c1,inactive: 6.64%
8,Cc1cc2ccccc2n1CCNC(=O)c1ccccc1F,inactive: -8.42%
9,O=c1c2sc3ccccc3c2n(Cc2ccc(F)cc2)c(=O)n1Cc1ccco1,inactive: -14.8%
10,CC(=O)Nc1ccc(OC(=O)c2ccccc2OC(C)=O)cc1,inactive: -15.6%
11,CC(C)c1ccc(S(=O)(=O)c2nnn3c2nc(NCc2cccs2)c2sccc23)cc1,inactive: -9.38%
12,O=C(NCC(c1ccc2c(c1)OCO2)N1CCN(c2ccccc2)CC1)C(=O)Nc1ccccc1 (stereo not drawn),inactive: 3.45%
13,COc1ccc(C(=O)Nc2ccccc2)cc1S(=O)(=O)Nc1ccc(Br)cc1,inactive: -17.9%
14,O=C(OCc1cc(=O)n2nc(C3CC3)sc2n1)c1ccc(NC(=O)c2ccccc2Cl)cc1,inactive: -35%
15,CCc1ccc2oc(C(=O)Nc3cc(Cl)ccc3OC)cc(=O)c2c1,"inactive: 9.34% [at 11.5 µM, percent change from vehicle, -100% = no light]"
16,Cc1c(C(=O)Nc2ccccc2)sc2nc(-c3cc4ccccc4oc3=O)[nH]c(=O)c12,inactive: 2.15%
17,O=C(Nc1ccc2nc(SCC(=O)N3CCCc4ccccc43)sc2c1)c1ccccc1F,inactive: -21.9%
18,Fc1ccc(Nc2nc(-c3cccc(Cl)c3)c3c(n2)-c2ccccc2OC3)cc1,inactive: -8.39%
19,CC(=O)[C@@]1(O)CC[C@H]2[C@@H]3C[C@H](C)C4=CC(=O)C=C[C@]4(C)[C@@]3(F)[C@@H](O)C[C@@]21C,inactive: -0.74%
20,COc1cccc(CNc2ncnc3c2nnn3C)c1,inactive: -5.34%
21,CNC(=O)C1CCC(Cn2c(=O)c3sccc3n(CC(=O)N3CCCC3)c2=O)CC1 (stereo not drawn),inactive: -16.7%
22,COc1cccc(C2CC(=O)Nc3c2c(=O)[nH]c2ncnn32)c1OC (stereo not drawn),inactive: -0.13%
23,Cc1cccc2cc(CN(C(=O)c3cccc(Cl)c3)c3ccccc3)c(=O)[nH]c12,inactive: -25.2%
24,CCc1nc(N)nc(N)c1-c1ccc(Cl)cc1,inactive

row,SMILES,"activity change, positive = activation"
1,CCOc1ccc(C2C(C(N)=O)=C(C)Nc3nc(-c4ccc(OC)cc4)nn32)cc1 (stereo not drawn),inactive: -1.96%
2,COc1ccccc1Nc1nn2c(=O)c3ccc(C(=O)NC4CCC(C)CC4)cc3nc2s1 (stereo not drawn),inactive: -4.69%
3,COc1ccccc1C(=O)Nc1cccc(OCc2cc(=O)n3c4c(sc3n2)CCCC4)c1,inactive: 0.0485%
4,O=C(C1CCN(S(=O)(=O)c2ccc(Br)s2)CC1)N1CCN(c2ccc(F)cc2)CC1,inactive: -30.8%
5,O=C(Cn1c2ncccc2c(=O)n1-c1ccccc1)Nc1ccc(Cl)cc1C(F)(F)F,inactive: -6.26%
6,COCc1cc(C)nc2sc3c(c12)NC(c1ccc(O)cc1)N(c1ccc(C)cc1)C3=O (stereo not drawn),inactive: -21.1%
7,O=C(OCc1cccc(C(F)(F)F)c1)c1ccc(-c2nnn(Cc3ccc(F)cc3)n2)cc1,inactive: -10.1%
8,Cc1nn(C(=O)c2ccccc2)c(C)c1S(=O)(=O)N1CCCCCC1,inactive: -17.8%
9,CCN(C(=O)c1cn(-c2ccc(OC)cc2)c(=O)c2ccccc12)c1cccc(Cl)c1,inactive: -34.3%
10,CCn1c(=N)c(C(=O)NC2CCCC2)cc2c(=O)n3ccccc3nc21,inactive: -4.17%
11,CC(C)N1CCc2nc(SCC(=O)Nc3cccc(F)c3)[nH]c(=O)c2C1,inactive: 12.9%
12,COc1ccc(-c2nc3scc(CCNC(=O)c4cc(OC)cc(OC)c4)n3n2)cc1,inactive: -20.2%
13,CCOc1ccc(C(=O)OCc2cc(=O)n3cc(C)sc3n2)cc1,inactive: -2.29%
14,CCCCCn1cc2c(c1-c1ccc(Cl)cc1)c(=O)n(C)c(=O)n2C,inactive: -16.9%
15,COc1ccc2c(c1)C=C(C(=O)NCc1cc(Br)ccc1OC)CO2,inactive: -20%
16,Cc1cccc(C(=O)Nc2ccc3oc(-c4ccncc4)nc3c2)c1,inactive: -19.1%
17,COc1ccccc1NC(=O)c1sc2ncn(Cc3ccccc3Cl)c(=O)c2c1C,inactive: -8.38%
18,CCOC(=O)C1CCCN(S(=O)(=O)c2ccc3[nH]c(=O)oc3c2)C1 (stereo not drawn),inactive: -19.4%
19,CCc1ccccc1NC(=O)c1sc(-n2nc(C)c(Cc3ccc4c(c3)OCO4)c2C)nc1C,inactive: -5.3%
20,CCOc1ccc(CNC(=O)C2CCN(S(=O)(=O)c3cn(C)cn3)CC2)cc1OC,inactive: -7.15%
21,COc1cccc(CN2C(=O)CN(C3CCCCC3)C(=O)C2c2ccc(OC)c(OC)c2)c1 (stereo not drawn),inactive: -18.5%
22,COc1ccc2c(c1)c1c(c(=O)n(-c3ccccc3C)c(=O)n1CC(=O)N1CCCC1)n2C,inactive: -16.8%
23,COc1ccc(C2C=C(c3ccccc3)Nc3nc(NC(=O)/C=C/c4ccc(F)cc4)nn32)cc1 (stereo not drawn),inactive: -17.3%
24,CCC(C)Sc1c(C(C)C)cnc2c1c(=O)n(C)c(=O)n2C (stereo not drawn),inactive: -36.7%
